Assay results as given in PubChem BioAssay AID1347417 (National Center for Advancing Translational Sciences (NCATS), 2020).
Hit rate of the full screen: of about 120,000 compounds, about 5,300 (4.4%) were called active. Inconclusive results, whose numbers are uncertain, are shown with a selection of clear calls. Calls come from the whole dose curve; as a rule, active = well fitted inhibition curve with a large enough effect; inconclusive = small, poorly fitted or top-dose-only effect; inactive = no such curve, though single readings can be large or run the other way. Where the call is inconclusive, the potency comes from a doubtful curve fit.

Test: qHTS Primary assay for Inhibitors of Plasmodium falciparum Dd2 growth in vitro; note: nearly all actives have a fitted effect of over 65% in size;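 for activity, negative = inhibition: plate controls were DMSO vehicle for no effect and reference drug for full effect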
Settings: P. falciparum Dd2 growth, SYBR Green, 72 h; activity, negative = inhibition: at 28.9 µM (top of the series) unless noted; series mostly up to 28.9 µM
Summary of the method: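 Readout: SYBR Green fluorescence, 485 nm excitation, 535 nm emission, after ~16 h lysis at 37C. Before that, Dd2-infected red cells (2.5% hematocrit) grew 72 h with compound, 29 uM top final concentration.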
Potency is the fitted concentration of half-maximal effect; tags give direction and shape of the fitted curve.

| SMILES | Potency | activity, negative = inhibition | outcome |
| --- | --- | --- | --- |
| COCCn1ncc(N2CCCC(CC(=O)NCc3ccc(C)o3)C2)cc1=O (stereo not drawn) | inconclusive: 3.16 µM [inhibitor, full curve] |  |  |
| O=C(NCc1ccccc1)N1CCC(O)(c2csc(CN3CCc4ccccc4C3)n2)CC1 | inconclusive: 15.8 µM [inhibitor, single point] |  |  |
| Cc1ccc(NC(=O)c2cc3c(s2)CN(C2CC2)C3)cc1 | active: 10 µM |  |  |
| O=C1CCCN1CCCN1C(=O)[C@@H]2C[C@@H](O)CN2C2(CN(C3CCC(F)(F)CC3)C2)C1=O |  | inactive: 8.95% |  |
| Cc1noc(C)c1[S+](=O)([O-])N1CCCCC12Cc1ccccc1NC2=O (stereo not drawn) |  |  | inactive |
| Nc1ncccc1CN1CC[C@@H]2OCC(=O)N(Cc3c[nH]c4ccccc34)[C@H]2CC1 | inconclusive: 31.6 µM [inhibitor, single point] |  |  |
| O=[S+]1([O-])NCC2(CCN(Cc3ccc(F)cc3)C2)Nc2ccccc21 (stereo not drawn) |  | inactive: -27.4% |  |
| COc1ccc(S(=O)(=O)N2CC(F)(F)C[C@H]2c2nc(C)no2)cc1 |  | inactive: -7.22% |  |
| CCc1noc(-c2cccn3c(CNC(=O)Cc4ccc(Cl)cc4)nnc23)n1 | inconclusive: 0.316 µM [inhibitor, full curve] |  |  |
| CCC1=Nc2cc(C(=O)NCc3ccc(F)cc3)ccc2Sc2ccc(C)cc21 | active: 5.62 µM |  |  |
| CCOC(=O)N1CCN(Cc2nc3cc(NC(=O)CC)ccc3n2C(C)C)CC1 | inconclusive: 7.94 µM [inhibitor, partial curve, poor fit] |  |  |
| O=C(NC1CCCC1)c1ccc2c(=O)n(Cc3ccccc3)c(SCc3ccc([N+](=O)[O-])cc3)nc2c1 | active: 3.16 µM |  |  |
| COCCCn1c(C)cnc1C1CCN(Cc2ccc(F)cc2F)C1 (stereo not drawn) | inconclusive: 1.26 µM [inhibitor, full curve, poor fit] |  |  |
| CCc1ccc(CNC(=O)Cn2ccc3cc(S(=O)(=O)N4CCCCCC4)ccc32)cc1 | inconclusive: 5.62 µM [inhibitor, partial curve, poor fit] |  |  |
| CCCN1CCN(C(=O)c2c(C)oc3c2CN(Cc2cccc(F)c2)CC3)CC1 | inconclusive: 2.51 µM [inhibitor, partial curve, poor fit] |  |  |
| O=C1[C@@H]2C[C@@H](CN2Cc2ccc3c(c2)OCO3)Oc2ccccc2N1Cc1ccccn1 | inconclusive: 31.6 µM [inhibitor, single point] |  |  |
| Nc1ncccc1CN1CCc2c(n(Cc3ccccc3)n(-c3ccccc3)c2=O)C1 | inconclusive: 12.6 µM [inhibitor, single point] |  |  |
| COc1ccc2c(c1)Cc1sc(NC(=O)c3ccccc3C)nc1-2 | inconclusive: 10 µM [inhibitor, single point] |  |  |
